Patent publication US20260116960A1 (SHANGHAI HONGCHENG BIOPHARMACEUTICAL, published 2026)

How the values were obtained:
[1] = target: T1, human VEGF (ACRO, Catalog No. VE5-H4210) (human, UniProt P15692-4 27-191); assay: BLI (Octet RED96e), antibody on AHC sensor, antigen as analyte 6.25-100 nM, 1:1 model
T1 construct: Analyte of the Octet assay; Bought protein
T1 sequence (looked up): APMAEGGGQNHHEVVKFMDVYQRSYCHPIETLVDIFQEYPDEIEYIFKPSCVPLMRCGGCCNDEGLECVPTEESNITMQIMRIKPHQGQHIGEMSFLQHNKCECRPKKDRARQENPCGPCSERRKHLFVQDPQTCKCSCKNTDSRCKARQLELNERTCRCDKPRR
Experimental: (§1) Octet® RED96e (ForteBio) was used to detect the affinity of trispecific antibodies to human PD-1, CTLA-4 and VEGFA. The specific method was as follows: the AHC Sensor was immersed in PBST (PBS containing 0.02% Tween) buffer for 10 minutes to activate the Sensor. The ligand (antibody to be tested) was diluted to 5 μg/mL with PBST buffer. […] The diluted ligand and analyte were added to the corresponding wells at 200 μL/well in triplicate. Program parameter settings: loading: 180 s, association: 180 s, dissociation: 600 s, regeneration: Gly-HCl pH 1.5, 30s, regeneration 3 times. […] Curve fit acceptance criteria: Full R\hat{ }2≥0.95.

[2] = target: T2, human CTLA-4 protein (Acro, Catalog No. CT4-H52H9) (human, UniProt P16410 36-161); assay: as above
T2 construct: Bought protein
Experimental: as §1

[3] = target: T3, human PD-1 protein (Acro, Catalog No. PD1-H5221) (human, UniProt Q15116 partial chain); assay: as above
T3 construct: Bought protein; also called human PD1-his; not shown: his tag
Experimental: as §1

[4] = target: T4, human CTLA-4 on the cell surface (human, UniProt P16410 36-223); assay: flow cytometry, CHO-hCTLA-4 cells, batch FACS#4
T4 construct: whole, on cells; also called CHO-hCTLA-4 cells; CHOK1-hCTLA4 cells

[5] = target: T5, human PD-1 on the cell surface (human, UniProt Q15116 25-288); assay: flow cytometry, 293T-hPD-1 cells, batch FACS#2
T5 construct: whole, on cells; also called cell surface PD-1
Experimental: After centrifugation at 300 g for 5 minutes, the supernatant was discarded. The antibodies were serially diluted 3-fold with FACS buffer to obtain two gradient series solution FACS #1 and FACS #2, with the starting concentration of 200 nM (Table 5, FACS #1) or 100 nM (Table 5, FACS #2, FIG. 2), respectively. Then 100 μL/well was added to a 96-well plate in triplicate, mixed, and incubated at 4° C. for 60 min. The plate was centrifuged and washed three times with FACS buffer. 100 μL/well of 1:800 diluted AF647-anti-hIgG(H+L) (Jackson, Catalog No.: 109-605-003) was added and incubated at 4° C. for 50 minutes. After washing the plate three times with FACS buffer, 100 μL/well of FACS buffer was added to resuspend the cells, and the fluorescence signal was detected on a flow cytometer (BECKMAN COULTER cytoFLEX). The binding activity was fitted using a four-parameter model to calculate the EC₅₀ value of each antibody binding to PD-1.

[6] = target: T6, human VEGF165-his protein (Acro, Catalog No. VE5-H5248) (human, UniProt P15692-4 27-191); assay: competitive ELISA, VEGF165-His coated, biotin-human KDR
T6 construct: Bought protein; also called hVEGF165-His; VEGFA; not shown: his tag
T6 sequence (looked up): T1 sequence (looked up)

[7] = target: T5, human PD-1 on the cell surface; assay: flow cytometry competition, 293T-hPD-1 cells, biotin-human PD-L1
Experimental: 50 μL of antibody solution serially diluted 3-fold in FACS buffer was added in triplicate, with a starting concentration of 200 nM. After mixing, incubated at 4° C. for 60 minutes. After washing three times with FACS buffer, 100 μL/well of 1:800 diluted PE Streptavidin was added and incubated at 4° C. for 50 min. After washing three times with FACS buffer, 150 μL/well of PBS was added to resuspend the cells, and the fluorescence signal was detected on a flow cytometer (BECKMAN COULTER cytoFLEX). The four-parameter model was used to fit the binding activity and the IC₅₀ value of the blocking activity of each antibody was calculated.

[8] = target: T7, Biotinylated-hCTLA4 (Acro, Catalog No. CT4-H82E3) (human, UniProt P16410 36-161, biotinylated (site not stated)); assay: sandwich ELISA: antibody titrated on coated human PD1-his, detected with biotinylated hCTLA4 and streptavidin-HRP
T7 construct: Bought protein

[9] = target: T8, Biotinylated Human VEGF165 (Acro, Catalog No. VE5-H82Q0) (human, UniProt P15692-4 27-191, biotinylated (site not stated)); assay: flow cytometry: antibody titrated on activated human T cells, detected with 2 ug/mL biotinylated human VEGF165 and PE streptavidin
T8 construct: Bought protein; also called Biotinylated-hVEGF165; Biotin-hVEGF165
T8 sequence (looked up): T1 sequence (looked up)
Experimental: After mixing, incubated at 4° C. for 60 minutes. […] The binding activity was fitted using a four-parameter model, and the EC₅₀ value of each antibody was calculated.

[10] = target: T4, human CTLA-4 on the cell surface; assay: flow cytometry competition, 293T-hPD-1-hCTLA-4 cells (PD-1 co-expressed), biotin-human CD80
Experimental: PD-1 and CTLA-4 are co-expressed on functionally exhausted T cells in the tumor microenvironment, and the expression level of PD-1 is higher than that of CTLA-4. […] 200 μL of the cells were added to a 96-well U-bottom plate, approximately 1.4×10⁵ cells/well. After centrifugation at 300 g for 5 minutes, the supernatant was discarded. […] After washing three times with FACS buffer, 100 μL/well of 1:800 diluted PE Streptavidin was added and incubated at 4° C. for 50 min. After washing three times with FACS buffer, 150 μL/well of PBS was added to resuspend the cells, and the fluorescence signal was detected on a flow cytometer (BECKMAN COULTER cytoFLEX). The binding activity was fitted using a four-parameter model, and the IC₅₀ value of the blocking activity of each antibody was calculated.

human VEGFA 165 protein = target: T9, human VEGFA 165 protein (human, UniProt P15692-4 27-191); assay: cell-based or functional assay
T9 sequence (looked up): T1 sequence (looked up)

[11] = target: T4, human CTLA-4 on the cell surface; assay: flow cytometry competition, CHO-hCTLA-4 cells, biotin-human CD80
Experimental: CHO-hCTLA-4 cells were obtained by trypsin digestion, washed twice with PBS containing 2% FBS (FACS buffer), and resuspended in FACS buffer. 200 μL of the cells were added to a 96-well U-bottom plate, approximately 2×10⁵ cells/well. After centrifugation at 300 g for 5 minutes, the supernatant was discarded. […] After washing three times with FACS buffer, 100 μL/well of 1:800 diluted PE Streptavidin was added and incubated at 4° C. for 50 min. After washing three times with FACS buffer, 150 μL/well of PBS was added to resuspend the cells, and the fluorescence signal was detected on a flow cytometer (BECKMAN COULTER cytoFLEX). The four-parameter model was used to fit the binding activity and the IC₅₀ value of the blocking activity of each antibody was calculated.

[12] = target: T8, Biotinylated Human VEGF165 (Acro, …); assay: sandwich ELISA: antibody titrated on coated human PD1-his, detected with biotinylated hVEGF165 and streptavidin-HRP
[13] = target: T4, human CTLA-4 on the cell surface; assay: flow cytometry, CHO-hCTLA-4 cells, batch FACS#3

T4 sequence (P16410 36-223): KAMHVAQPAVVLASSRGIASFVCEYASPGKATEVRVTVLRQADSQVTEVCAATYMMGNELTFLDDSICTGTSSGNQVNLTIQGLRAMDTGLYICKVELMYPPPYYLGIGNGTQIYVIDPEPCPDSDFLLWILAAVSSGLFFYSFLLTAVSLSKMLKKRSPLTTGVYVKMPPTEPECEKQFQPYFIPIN
T5 sequence (Q15116 25-288): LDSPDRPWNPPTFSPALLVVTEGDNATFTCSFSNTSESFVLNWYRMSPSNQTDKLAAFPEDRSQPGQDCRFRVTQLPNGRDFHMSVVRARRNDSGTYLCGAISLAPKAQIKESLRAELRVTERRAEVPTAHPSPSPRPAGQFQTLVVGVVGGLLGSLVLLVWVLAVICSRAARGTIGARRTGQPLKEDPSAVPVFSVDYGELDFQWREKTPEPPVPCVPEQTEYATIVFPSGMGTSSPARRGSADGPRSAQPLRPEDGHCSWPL

Kd [1]: 9.55 nM
Kd [2]: 1.5 nM
Kd [3]: 4.67 nM
EC50 [4]: 5.43 nM
EC50 [5]: 2.13 nM
IC50 [6]: 4.91 nM
IC50 [7]: 7.4 nM
EC50 [8]: 0.25 nM
EC50 [9]: 0.377 nM
IC50 [10]: 0.096 nM
IC50, inhibition of VEGFA-induced HUVEC cell proliferation (CellTiter-Glo) (human VEGFA 165 protein): 0.828 nM
IC50 [11]: 34.8 nM
EC50 [12]: 0.054 nM
EC50 [13]: 5.43 nM
B1: HC010-F23 (trispecific antibody, human IgG4 S228P, kappa)
heavy: EVQLVESGGGLVQPGGSLRLSCAASGFTFSSYGMSWVRQAPGKCLEWVSTISGGGRDTYYPDSVKGRFTISRDNSKNTLYLQMNSLRAEDTAVYYCARQNGITWFADWGQGTLVTVSSGGGGSGGGGSGGGGSGGGGSDIQMTQSPSSLSASVGDRVTITCRASESVDNYGISFMNWYQQKPGKAPKLLIYAASNQGSGVPSRFSGSGSGTDFTLTISSLQPEDFATYYCQQSKEVPWTFGCGTKVEIKGGGGSGGGGSGGGGSGGGGSEVQLLESGGGLVQPGGSLRLSCAASGSIFSINHMAWYRQAPGKQRELVAGVNSRGTTNYVDSVKGRFTISRDNSKNTLYLQMNSLRAEDTAVYYCRALGGAVAAWGQGTLVTVSSGGGGSGGGGSGGGGSGGGGSEVQLVESGGGLVQPGGSLRLSCAASGYTFTNYGMNWVRQAPGKGLEWVGWINTYTGEPTYAADFKRRFTFSLDTSKSTAYLQMNSLRAEDTAVYYCAKYPHYYGSSHWYFDVWGQGTLVTVSSASTKGPSVFPLAPCSRSTSESTAALGCLVKDYFPEPVTVSWNSGALTSGVHTFPAVLQSSGLYSLSSVVTVPSSSLGTKTYTCNVDHKPSNTKVDKRV[human IgG4 Fc with S228P (EU numbers) not spelt out]
light: DIQMTQSPSSLSASVGDRVTITCSASQDISNYLNWYQQKPGKAPKVLIYFTSSLHSGVPSRFSGSGSGTDFTLTISSLQPEDFATYYCQQYSTVPWTFGQGTKVEIKRTVAAPSVFIFPPSDEQLKSGTASVVCLLNNFYPREAKVQWKVDNALQSGNSQESVTEQDSKDSTYSLSSTLTLSKADYEKHKVYACEVTHQGLSSPVTKSFNRGEC
notes: light: bevacizumab VL-kappa; also called H010-F23
